Source: the supplement of paper PMC12067230
This is a noisy data set.
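Also: [psi-pin-] Saccharomyces cerevisiae expressing SupN fusions, induced by 100 µM Cu2SO4, selected 7 d at 30 °C without adenine and uracil, scored by deep sequencing of output versus input.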

Assay: amyloid nucleation score relative to library mode (yeast Sup35 reporter selection) (log enrichment difference); higher = more amyloid nucleation; sequences are the first 22 residues of the Bri2 peptide extended by up to 12 random residues
Conditions: random library (experiment): 1;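 active = nucleation score significantly above 0 at FDR 0.05; inactive = not significantly above 0 or absent from output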
EASNCFAIRHFENKFAVETLICVSAHICDTDVQT showed an amyloid nucleation score of 4.93. For EASNCFAIRHFENKFAVETLICGESVTERRNAEL, the amyloid nucleation score was “inactive”. With EASNCFAIRHFENKFAVETLICPTAFSNLSSVVV the amyloid nucleation score was “inactive”. For EASNCFAIRHFENKFAVETLICNMNEI, the amyloid nucleation score was 1.25. With EASNCFAIRHFENKFAVETLICWYVLGCGSRSER the amyloid nucleation score was “inactive”. For EASNCFAIRHFENKFAVETLICYCKYLKIPNLIL, the amyloid nucleation score was -0.302. In the case of EASNCFAIRHFENKFAVETLICTGGLHGELRSRE, the amyloid nucleation score is reported as “inactive”. For EASNCFAIRHFENKFAVETLICARLAMQSSGRSG, the amyloid nucleation score was “inactive”. With EASNCFAIRHFENKFAVETLICRWYDKSGISYSS the amyloid nucleation score was “inactive”. EASNCFAIRHFENKFAVETLICYMVSYRREVRRK gave an amyloid nucleation score of -0.568. With EASNCFAIRHFENKFAVETLICRDVQLKSVGRTL the amyloid nucleation score was “inactive”. For EASNCFAIRHFENKFAVETLICRWRAEYLFAFGG, the amyloid nucleation score was 0.582. EASNCFAIRHFENKFAVETLICFVVQE gave an amyloid nucleation score of 6.52. In the case of EASNCFAIRHFENKFAVETLICGLRLSPAQLRAG, the amyloid nucleation score is reported as “inactive”. For EASNCFAIRHFENKFAVETLICGRLSNGGRRSLV, the amyloid nucleation score was “inactive”. With EASNCFAIRHFENKFAVETLICFCVLGDRLRPAV the amyloid nucleation score was 2.96. Sequence EASNCFAIRHFENKFAVETLICCILGKVWVREGA has an amyloid nucleation score of 7.12. For EASNCFAIRHFENKFAVETLICAWWKVSQTIVRS, the amyloid nucleation score was “inactive”. EASNCFAIRHFENKFAVETLICQIWAND gave an amyloid nucleation score of 5.74. With EASNCFAIRHFENKFAVETLICAP the amyloid nucleation score was “inactive”. For EASNCFAIRHFENKFAVETLICRLGTHRQMCPLD, the amyloid nucleation score was “inactive”. In the case of EASNCFAIRHFENKFAVETLICMEKASVSSVFWP, the amyloid nucleation score is reported as 2.48. Sequence EASNCFAIRHFENKFAVETLICLLMSVN has an amyloid nucleation score of 3.01. EASNCFAIRHFENKFAVETLICVVWVRYRGAGQL gave an amyloid nucleation score of 2.53. With EASNCFAIRHFENKFAVETLICEK the amyloid nucleation score was “inactive”. With EASNCFAIRHFENKFAVETLICIEMLKIVMKCLV the amyloid nucleation score was “inactive”. For EASNCFAIRHFENKFAVETLICWFKSWYPARLTV, the amyloid nucleation score was “inactive”. Sequence EASNCFAIRHFENKFAVETLICVACMRVHEVAVP has an amyloid nucleation score of 2.52. For EASNCFAIRHFENKFAVETLICQVRRPGVKSWVR, the amyloid nucleation score was “inactive”. For EASNCFAIRHFENKFAVETLICYGSK, the amyloid nucleation score was “inactive”. For EASNCFAIRHFENKFAVETLICRFSMRLSATVAR, the amyloid nucleation score was “inactive”. Work on EASNCFAIRHFENKFAVETLICYADGPGADLPIW yielded an amyloid nucleation score of -0.431. Work on EASNCFAIRHFENKFAVETLICTGMIVMG yielded an amyloid nucleation score of 3.47. For EASNCFAIRHFENKFAVETLICIFVYLRDAHVGI, the amyloid nucleation score was “inactive”. For EASNCFAIRHFENKFAVETLICVLQYPHCFLWGC, the amyloid nucleation score was “inactive”. Sequence EASNCFAIRHFENKFAVETLICPMMESVVGGGVR has an amyloid nucleation score of 0.903. In the case of EASNCFAIRHFENKFAVETLICHSTWCYIGDRCA, the amyloid nucleation score is reported as 5.13. For EASNCFAIRHFENKFAVETLICREPSLEV, the amyloid nucleation score was “inactive”. In the case of EASNCFAIRHFENKFAVETLICILHCAVVVGSDL, the amyloid nucleation score is reported as “inactive”. EASNCFAIRHFENKFAVETLICLNVYCCTYCPSA showed an amyloid nucleation score of 7.76. In the case of EASNCFAIRHFENKFAVETLICVQVTRQDNSRSL, the amyloid nucleation score is reported as “inactive”. For EASNCFAIRHFENKFAVETLICLSLMSHVYVMGW, the amyloid nucleation score was “inactive”. With EASNCFAIRHFENKFAVETLICRMVGSLALIVPN the amyloid nucleation score was “inactive”. For EASNCFAIRHFENKFAVETLICGDGARNWGPCLG, the amyloid nucleation score was “inactive”. For EASNCFAIRHFENKFAVETLICWGGMSILAFKGH, the amyloid nucleation score was “inactive”. With EASNCFAIRHFENKFAVETLICPNNIVYMSCSIC the amyloid nucleation score was 6.8. For EASNCFAIRHFENKFAVETLICRVTCRSKPFLRV, the amyloid nucleation score was “inactive”. For EASNCFAIRHFENKFAVETLICMSLCGRAGHGVV, the amyloid nucleation score was 7.09. In the case of EASNCFAIRHFENKFAVETLICLTSVCYTYHCKK, the amyloid nucleation score is reported as “inactive”. In the case of EASNCFAIRHFENKFAVETLICAWLNKASEGVWV, the amyloid nucleation score is reported as “inactive”. In the case of EASNCFAIRHFENKFAVETLICCANPVGMFAGAR, the amyloid nucleation score is reported as 7.56. For EASNCFAIRHFENKFAVETLICVNLYDMQTTAAL, the amyloid nucleation score was 5.54. EASNCFAIRHFENKFAVETLICDAMVRRWYHMST showed an amyloid nucleation score of 3.02. For EASNCFAIRHFENKFAVETLICKMVAATRVTMSV, the amyloid nucleation score was “inactive”. For EASNCFAIRHFENKFAVETLICPTDSRSAGMGCW, the amyloid nucleation score was “inactive”. Sequence EASNCFAIRHFENKFAVETLICKCMSCQ has an amyloid nucleation score of 5.51.

Same assay, conditions: random library (experiment): 2
In the case of EASNCFAIRHFENKFAVETLICIGLSYTFSHW, the amyloid nucleation score is reported as “inactive”. EASNCFAIRHFENKFAVETLICFKRFVTLIECFR showed an amyloid nucleation score of 3.51. With EASNCFAIRHFENKFAVETLICLVYGYFSQVKNG the amyloid nucleation score was “inactive”. EASNCFAIRHFENKFAVETLICCVLFCVIFSYST gave an amyloid nucleation score of 6.5. In the case of EASNCFAIRHFENKFAVETLICWFYTLLKRSVVF, the amyloid nucleation score is reported as “inactive”. In the case of EASNCFAIRHFENKFAVETLICRTDLWTLCKRQR, the amyloid nucleation score is reported as “inactive”. For EASNCFAIRHFENKFAVETLICNYGHMKYTGCIR, the amyloid nucleation score was 8.41. For EASNCFAIRHFENKFAVETLICDYIM, the amyloid nucleation score was “inactive”. With EASNCFAIRHFENKFAVETLICYY the amyloid nucleation score was “inactive”. Sequence EASNCFAIRHFENKFAVETLICVWY has an amyloid nucleation score of 2.51. In the case of EASNCFAIRHFENKFAVETLICTLMMSLFGFIRA, the amyloid nucleation score is reported as “inactive”. In the case of EASNCFAIRHFENKFAVETLICVTVEIH, the amyloid nucleation score is reported as “inactive”. Work on EASNCFAIRHFENKFAVETLICVLG yielded an amyloid nucleation score of 4.65. In the case of EASNCFAIRHFENKFAVETLICVRDDRYCWAIVR, the amyloid nucleation score is reported as “inactive”. With EASNCFAIRHFENKFAVETLICVQITCEFWWVEV the amyloid nucleation score was “inactive”. For EASNCFAIRHFENKFAVETLICRLNMH, the amyloid nucleation score was “inactive”. For EASNCFAIRHFENKFAVETLICPKCTLHGSVQWV, the amyloid nucleation score was “inactive”. EASNCFAIRHFENKFAVETLICVPETYILTMLKT gave an amyloid nucleation score of -0.0583. With EASNCFAIRHFENKFAVETLICVRGNQGLFGGLG the amyloid nucleation score was 3.26. In the case of EASNCFAIRHFENKFAVETLICQRFYARLNLVWL, the amyloid nucleation score is reported as “inactive”. EASNCFAIRHFENKFAVETLICGCVMSMDDRNSA showed an amyloid nucleation score of 7.97. Work on EASNCFAIRHFENKFAVETLICICVQSKRSWLIR yielded an amyloid nucleation score of 2.86. Work on EASNCFAIRHFENKFAVETLICYYGCQS yielded an amyloid nucleation score of 5.65. In the case of EASNCFAIRHFENKFAVETLICLVAAGSHDGCAL, the amyloid nucleation score is reported as “inactive”. For EASNCFAIRHFENKFAVETLICVTQVCLFTLRAR, the amyloid nucleation score was “inactive”. In the case of EASNCFAIRHFENKFAVETLICRKGFVTNMRLV, the amyloid nucleation score is reported as “inactive”. EASNCFAIRHFENKFAVETLICPVKFNVVNDWHV gave an amyloid nucleation score of 5.81. For EASNCFAIRHFENKFAVETLICCLVGQRSRSLRC, the amyloid nucleation score was “inactive”. With EASNCFAIRHFENKFAVETLICIFSLIRNCCPIW the amyloid nucleation score was “inactive”. For EASNCFAIRHFENKFAVETLICYCSCLLLCWRHK, the amyloid nucleation score was 3.98. EASNCFAIRHFENKFAVETLICCDLFQLWVKGLT showed an amyloid nucleation score of 5.46. For EASNCFAIRHFENKFAVETLICYVILLRYYRCFY, the amyloid nucleation score was “inactive”. EASNCFAIRHFENKFAVETLICGAYTEAWRGQGG gave an amyloid nucleation score of 2.6. In the case of EASNCFAIRHFENKFAVETLICELVDALVNGELS, the amyloid nucleation score is reported as “inactive”. EASNCFAIRHFENKFAVETLICVEFCSPINTDLR gave an amyloid nucleation score of 1.69. For EASNCFAIRHFENKFAVETLICLLLLMPFRYLWE, the amyloid nucleation score was “inactive”.

Same assay, conditions: random library (experiment): 3
EASNCFAIRHFENKFAVETLICGPEQLDLACDGV gave an amyloid nucleation score of -0.638. For EASNCFAIRHFENKFAVETLICLRMGNWGGKAFP, the amyloid nucleation score was “inactive”. In the case of EASNCFAIRHFENKFAVETLICYCRKRTTAMGT, the amyloid nucleation score is reported as “inactive”. In the case of EASNCFAIRHFENKFAVETLICPSGSVTVKACMW, the amyloid nucleation score is reported as “inactive”. EASNCFAIRHFENKFAVETLICLTEAAHHGEVRF gave an amyloid nucleation score of 0.0182. For EASNCFAIRHFENKFAVETLICRVRYFALSVTDT, the amyloid nucleation score was “inactive”. With EASNCFAIRHFENKFAVETLICTIQVPLSLSGMF the amyloid nucleation score was 7.22. For EASNCFAIRHFENKFAVETLICRRWVRMSDLVLE, the amyloid nucleation score was “inactive”. In the case of EASNCFAIRHFENKFAVETLICWPIMRKVESITW, the amyloid nucleation score is reported as “inactive”. With EASNCFAIRHFENKFAVETLICMAVKRSSDRVTK the amyloid nucleation score was “inactive”. With EASNCFAIRHFENKFAVETLICRVRWECERHLIA the amyloid nucleation score was 3.1. Work on EASNCFAIRHFENKFAVETLICIKPGVRRNTSFR yielded an amyloid nucleation score of 1.9. With EASNCFAIRHFENKFAVETLICLVDCPSPGARLW the amyloid nucleation score was “inactive”. In the case of EASNCFAIRHFENKFAVETLICAYPDTMNVRSIL, the amyloid nucleation score is reported as “inactive”. Sequence EASNCFAIRHFENKFAVETLICFCENQLSDTVVL has an amyloid nucleation score of 4.19. For EASNCFAIRHFENKFAVETLICTVFSMFVENSRK, the amyloid nucleation score was 6.95. Work on EASNCFAIRHFENKFAVETLICCILRAKSEPFSR yielded an amyloid nucleation score of 3.42. For EASNCFAIRHFENKFAVETLICLVERERRGPIGA, the amyloid nucleation score was 0.0944. Sequence EASNCFAIRHFENKFAVETLICLSVARMR has an amyloid nucleation score of 2.61. Sequence EASNCFAIRHFENKFAVETLICTRTKDPTAGQVK has an amyloid nucleation score of 5.52. Sequence EASNCFAIRHFENKFAVETLICCELGD has an amyloid nucleation score of 4.5. In the case of EASNCFAIRHFENKFAVETLICPSTCEVRFDVLW, the amyloid nucleation score is reported as “inactive”. EASNCFAIRHFENKFAVETLICRLASNWYMTSLA showed an amyloid nucleation score of -0.0354. In the case of EASNCFAIRHFENKFAVETLICCWMVYNLYVVRL, the amyloid nucleation score is reported as “inactive”. In the case of EASNCFAIRHFENKFAVETLICASEYSSY, the amyloid nucleation score is reported as “inactive”. Work on EASNCFAIRHFENKFAVETLICRRSKPL yielded an amyloid nucleation score of 0.798. In the case of EASNCFAIRHFENKFAVETLICWLMLTVCALRCE, the amyloid nucleation score is reported as “inactive”.
